Over roughly 110,000 compounds, “z-score” has its median near -0.1; the highest 2% begin near 2. The list shows a part of the results.

These results are taken from PubChem BioAssay AID488969 (Vanderbilt High Throughput Screening Facility, 2010).

In the assay the target is Metabotropic glutamate receptor 8 (Rattus norvegicus) (UniProt P70579). Nature of the assay: mGluR8 Gi/Go-coupled signaling modulation – cell-based, rat, thallium flux, HTS, primary screen (AID 488969). The following applies: HEK293 rat mGluR8, GIRK (G protein-gated inwardly rectifying potassium channel) thallium flux, FluoZin2; at 10 µM; stronger effect = higher value; submaximal glutamate (EC20) added with thallium.
Sequence of UniProt P70579 (P70579 whole entry, looked up): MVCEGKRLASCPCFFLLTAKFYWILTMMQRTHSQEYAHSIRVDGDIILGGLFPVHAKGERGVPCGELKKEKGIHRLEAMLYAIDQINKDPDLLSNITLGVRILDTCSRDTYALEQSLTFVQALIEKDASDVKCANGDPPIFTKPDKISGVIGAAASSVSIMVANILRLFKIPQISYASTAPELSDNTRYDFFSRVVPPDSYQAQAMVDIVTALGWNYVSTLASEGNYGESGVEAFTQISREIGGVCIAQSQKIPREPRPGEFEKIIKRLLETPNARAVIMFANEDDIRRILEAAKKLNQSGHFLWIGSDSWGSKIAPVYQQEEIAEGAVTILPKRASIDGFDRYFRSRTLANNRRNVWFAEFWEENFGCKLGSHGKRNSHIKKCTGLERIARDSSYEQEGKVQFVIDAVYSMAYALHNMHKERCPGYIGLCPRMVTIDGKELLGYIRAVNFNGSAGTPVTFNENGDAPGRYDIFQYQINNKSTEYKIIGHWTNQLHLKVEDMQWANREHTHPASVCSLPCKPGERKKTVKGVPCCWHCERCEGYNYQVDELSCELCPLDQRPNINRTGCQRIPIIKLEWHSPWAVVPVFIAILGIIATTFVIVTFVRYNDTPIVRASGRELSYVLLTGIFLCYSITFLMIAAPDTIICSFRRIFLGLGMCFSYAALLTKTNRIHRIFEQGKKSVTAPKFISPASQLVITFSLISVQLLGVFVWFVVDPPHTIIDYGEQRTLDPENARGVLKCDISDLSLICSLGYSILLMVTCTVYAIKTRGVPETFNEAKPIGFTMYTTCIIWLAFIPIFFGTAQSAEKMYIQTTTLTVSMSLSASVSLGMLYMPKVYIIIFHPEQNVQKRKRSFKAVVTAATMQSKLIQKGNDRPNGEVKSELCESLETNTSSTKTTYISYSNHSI
`Cc1cccc(NC(=O)CN2C(=O)N/C(=C/c3ccc(C)s3)C2=O)c1` gave a z-score of -0.345. `CCCCC(c1nnnn1CCOC)N1CCN(Cc2ccccc2)CC1` (stereo not given) gave a z-score of -0.0652. Molecule `COc1ccccc1OCc1ccc(C(=O)N2CCN(C(=O)c3ccco3)CC2)cc1` yielded a z-score of 0.733.

In the case of `CC(C)NC(=O)COC(=O)c1cc(F)c(F)cc1Cl`, the z-score was -0.412. `CCCOc1ccccc1C(=O)N(Cc1ccco1)C1CCS(=O)(=O)C1` (stereo not given): the z-score is -0.441. Consider `COc1ccc(NC(=O)Cc2c(SC)c3ccccc3n2Cc2ccccc2)cc1`, for which the z-score is -0.073. Next, `CCCCCc1ccc(S(=O)(=O)NCCc2ccncc2)cc1`: 0.483. Molecule `COC(=O)CSc1nnc(-c2ccco2)n1-c1ccc(C)cc1` showed a z-score of 0.151.

In turn, `O=S(CC(O)COCc1ccc(Cl)cc1)c1ccccn1` (stereo not given) came in with a z-score of 0.29.

Turning to `CCOC(=O)c1oc2ccccc2c1CSc1nnnn1-c1ccc(C)cc1`, the z-score was -0.389. In turn, `O=C1c2ccccc2C(Nc2cccnc2)N1Cc1ccccc1` (stereo not given) yielded a z-score of -0.0395. Molecule `Cc1ccc2c(c1)nnn2C1CCN(C(=O)NC23CC4CC(CC(C4)C2)C3)CC1` registered a z-score of -0.32. As for `CCOC(=O)c1c(NC(=S)Nc2ccccc2)sc2c1CC(C)(C)SC2`, the figure is -0.0674; as for `Cn1c(=O)c2nc(Cl)n(Cc3ccc(Cl)cc3Cl)c2n(C)c1=O`, -1.06; as for `Cc1ccc2oc(=O)c3cc(C(=O)NCc4ccco4)sc3c2c1`, -0.267. `CSc1nc2c(c(-c3ccc(O)cc3)c1C#N)CCC2` came in with a z-score of -0.648. With `Cc1cccc(C)c1NC(=S)NN1CCN(C)CC1`, the z-score is 0.3. In the case of `O=C(NCC1CCCO1)c1ccc(S(=O)(=O)N2CCC(c3nc4ccc(Cl)cc4[nH]3)CC2)cc1` (stereo not given), the z-score stood at 0.143.

`CCC(CC)NC(=O)CSc1nnc(-c2ccc(OC)cc2)n1C(C)C` came in with a z-score of 1.45.

The molecule `COc1ccc(Br)cc1C1CC(=O)N2CN(C)CSC2=C1C#N` (stereo not given) registered a z-score of -0.148. Molecule `O=c1[nH]c(N/N=C/c2ccc(O)cc2)nc2ccccc12` showed a z-score of -0.00334.

Take `C=CCNC(=O)C1CC(=O)N(c2ccc(OCC(=O)Nc3ccc(C)cc3)cc2)C1` (stereo not given): the z-score amounted to 0.104.

As to `O=C(O)/C=C/c1ccc2ccccc2n1`, the z-score is -0.432. As for `Cc1cc(Cl)c(S(=O)(=O)NCC2CCCO2)cc1OCC(=O)NC1CCCCC1` (stereo not given), the z-score was -0.127. As for `CCOc1ccc(-c2cc(N)n(S(=O)(=O)c3ccc(OC)c(OC)c3)n2)cc1`, the figure is -0.0264; as for `CCc1cc2c(=O)c(-c3cnn(-c4ccccc4)c3)c(C)oc2cc1OCC(=O)Nc1ccc(F)c(F)c1`, 0.0216. As for `CCN(CC)c1ccc(NC(=O)c2cncc(Br)c2)cc1`, the figure is -1.28.

The molecule `O=C(COC(=O)CSc1cc(Cl)ccc1Cl)NCc1ccc2c(c1)OCO2` registered a z-score of -0.326. As to `O=C1c2[nH]nc(-c3ccccc3O)c2C(c2cccc(Cl)c2)N1Cc1ccco1` (stereo not given), the z-score was -0.211. As for `CCCCCOC(=O)c1ccc(N2C(=O)C3C4C=CC(C4)C3C2=O)cc1` (stereo not given), the figure is 0.103.
